Data published in the supplement of paper PMC10441789.
The other results are listed elsewhere or left out. Antibody binding of pooled human sera (four to six donors per pool; dilution not stated) to peptides of the Trypanosoma cruzi antigen TSSA on microarrays. Quantile-normalised fluorescence in arbitrary units, mean of duplicate arrays; higher = more binding. No active / inactive call. The uninfected pools are read here as the healthy donors of the same country. The strongest signals lie near the top of the scale (about 60,000).

What follows are sequences tested on pooled sera of uninfected people, Colombia (assay: antibody binding signal (normalised fluorescence) (arbitrary fluorescence units); higher = stronger serum antibody binding to peptide).
Experimental: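 Microarray of 15-residue peptides over residues 30-55 of Trypanosoma cruzi TSSAII, each with 1 to 10 substitutions at naturally variable positions, probed with one serum pool per country.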
With GKDKKPATGGAPSQS the antibody binding signal was 82.7. TPPSGTEKKPAAGET was tested, and the antibody binding signal was 318. With KTAAGEAPSQSGASS the antibody binding signal was 172. EKKTAAGGTPSQPGA showed an antibody binding signal of 313. With SGTENKAATGGTPSP the antibody binding signal was 381. PPSGKDNKPAAGETP showed an antibody binding signal of 288. With ISTPPSGTENKAAAG the antibody binding signal was 835. For GKEKKAATGEAPSQP, the antibody binding signal was 177. TDKKAAAGGAPSPPG showed an antibody binding signal of 136. With SGKDNKTAAGEAPSQ the antibody binding signal was 822. Sequence GTEKKTATGETPSPS has an antibody binding signal of 139. In the case of GKENKPATGGTPSPP, the antibody binding signal is reported as 289. Sequence EKKPATGEAPSQSGA has an antibody binding signal of 315. GTEKKAATGGTPSQP was tested, and the antibody binding signal was 1000. For GKDKKAATGGAPSQS, the antibody binding signal was 230. Work on TPPSGKDNKPATGEA yielded an antibody binding signal of 241. Sequence DNKTAAGETPSQSGA has an antibody binding signal of 154. Work on GKEKKPAAGETPSPS yielded an antibody binding signal of 145. For SGTEKKAATGGAPSP, the antibody binding signal was 1260. SGKEKKAAAGETPSP gave an antibody binding signal of 113. With ENKPATGGTPSPSGA the antibody binding signal was 688. ENKAAAGGTPSQSGA showed an antibody binding signal of 291. GKEKKPAAGGAPSPS showed an antibody binding signal of 79.3. STPPSGKENKTAAGG was tested, and the antibody binding signal was 619. TPPSGKEKKAATGEA showed an antibody binding signal of 429. NKTATGEAPSPSGAS showed an antibody binding signal of 247. In the case of TPPSGTENKTATGEA, the antibody binding signal is reported as 269. SGKDKKAAAGGAPSP showed an antibody binding signal of 137. Work on TPPSGKDKKAATGET yielded an antibody binding signal of 427. Sequence SGTENKAAAGEAPSQ has an antibody binding signal of 110. DNKTAAGGTPSQSGA gave an antibody binding signal of 246. Sequence GKEKKTATGETPSPP has an antibody binding signal of 123. TSSTPPSGKDNKPAT gave an antibody binding signal of 254. Sequence TDKKTATGGAPSPSG has an antibody binding signal of 134. For DKKTAAGETPSPSGA, the antibody binding signal was 500. For GTDKKTAAGEAPSQS, the antibody binding signal was 629. ENKTAAGGTPSQPGA was tested, and the antibody binding signal was 375. With KKAAAGETPSPPGAS the antibody binding signal was 132. Work on GKDNKTATGETPSQP yielded an antibody binding signal of 405. Sequence GTDKKAATGEAPSQS has an antibody binding signal of 423.
